In experiment [1] the target is VHL(AA1-53) (human) (UniProt P40337). Kind of experiment: co-IP; HEK293T cells co-transfected; lysis in IP buffer (20 mM Tris-HCl pH 7.5, 1% Triton X-100, 50 mM NaCl, 50 mM NaF, 15 mM Na4P2O7, 0.1 mM EDTA, 2 mM Na3VO4); Flag-tagged protein precipitated on anti-FLAG M2 affinity beads overnight at 4 °C; co-precipitate detected by blot with anti-Myc or anti-GFP.
Experiment [2] deals with Flag.VHL30 (von Hippel-Lindau protein, full length) (human) (UniProt P40337). The description is as above.
The target in experiment [3] is VHL(Y112N) (human) (UniProt P40337). Briefly: co-IP; overexpressed VHL mutants and RAPTOR (Supplementary Fig. 2; details not shown).
Experiment [4] addresses VHL(Y98N) (human) (UniProt P40337). The description is as above.
Experiment [5] addresses endogenous VHL (human (endogenous in HeLa)) (UniProt P40337). Kind of experiment: co-IP; endogenous proteins; four dishes of confluent HeLa cells pooled, IP buffer; anti-VHL antibody (Santa Cruz) or normal rabbit IgG overnight, Protein A beads 2 h at 4 °C; blot with anti-RAPTOR.

Chains of the proteins cited; added tags and fusions are not shown. Lines headed by an entry give the natural chain unless they say otherwise; changes in a name come on top. Residues count along the entry.
UniProt P40337: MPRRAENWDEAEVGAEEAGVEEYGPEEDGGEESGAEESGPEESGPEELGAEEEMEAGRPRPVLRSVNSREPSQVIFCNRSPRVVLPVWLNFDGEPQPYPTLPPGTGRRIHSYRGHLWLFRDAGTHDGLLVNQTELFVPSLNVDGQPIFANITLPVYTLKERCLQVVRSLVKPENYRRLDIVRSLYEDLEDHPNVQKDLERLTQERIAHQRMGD
VHL(AA1-53): residues 1-53 of P40337
UniProt Q8N122: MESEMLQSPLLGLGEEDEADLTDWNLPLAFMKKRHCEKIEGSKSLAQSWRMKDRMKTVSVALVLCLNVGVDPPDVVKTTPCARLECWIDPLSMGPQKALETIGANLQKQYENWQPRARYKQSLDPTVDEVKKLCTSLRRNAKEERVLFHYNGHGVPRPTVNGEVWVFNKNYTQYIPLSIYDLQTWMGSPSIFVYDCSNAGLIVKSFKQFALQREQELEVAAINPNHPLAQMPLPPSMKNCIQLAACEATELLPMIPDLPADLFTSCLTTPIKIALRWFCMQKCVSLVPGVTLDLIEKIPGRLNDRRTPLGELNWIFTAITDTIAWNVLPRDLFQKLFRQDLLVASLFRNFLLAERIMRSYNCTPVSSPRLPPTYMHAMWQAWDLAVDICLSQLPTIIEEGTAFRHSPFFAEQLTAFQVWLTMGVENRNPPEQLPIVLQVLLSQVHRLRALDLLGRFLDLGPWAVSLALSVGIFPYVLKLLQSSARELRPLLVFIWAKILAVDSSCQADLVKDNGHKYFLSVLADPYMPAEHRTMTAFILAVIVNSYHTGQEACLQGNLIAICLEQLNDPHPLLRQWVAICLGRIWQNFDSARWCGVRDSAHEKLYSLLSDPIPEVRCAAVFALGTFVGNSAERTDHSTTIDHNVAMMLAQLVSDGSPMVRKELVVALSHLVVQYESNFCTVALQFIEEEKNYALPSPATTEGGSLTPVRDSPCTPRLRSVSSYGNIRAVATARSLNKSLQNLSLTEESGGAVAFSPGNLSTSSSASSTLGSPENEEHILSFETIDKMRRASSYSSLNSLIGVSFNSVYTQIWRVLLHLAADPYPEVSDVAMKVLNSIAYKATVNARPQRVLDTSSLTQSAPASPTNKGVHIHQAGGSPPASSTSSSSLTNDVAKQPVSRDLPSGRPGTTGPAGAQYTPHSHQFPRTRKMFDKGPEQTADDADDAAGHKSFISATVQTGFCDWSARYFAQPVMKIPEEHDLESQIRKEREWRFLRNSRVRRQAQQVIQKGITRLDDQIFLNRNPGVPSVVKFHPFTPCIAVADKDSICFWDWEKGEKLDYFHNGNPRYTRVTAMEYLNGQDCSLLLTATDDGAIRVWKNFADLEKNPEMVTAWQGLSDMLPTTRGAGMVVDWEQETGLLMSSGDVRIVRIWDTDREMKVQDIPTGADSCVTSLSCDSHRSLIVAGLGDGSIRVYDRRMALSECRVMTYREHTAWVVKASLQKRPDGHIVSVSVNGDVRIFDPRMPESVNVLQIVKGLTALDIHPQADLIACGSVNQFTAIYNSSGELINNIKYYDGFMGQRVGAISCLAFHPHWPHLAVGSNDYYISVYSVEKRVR

This note sets out measurements from PMC8295262.

These are yes or no findings as the source states them, for the method shown. In cells and extracts the contact can be indirect. Some binding calls cover weakened binding; strength is not graded here.

Turning to “Myc.RAPTOR (regulatory-associated protein of mTOR) (from UniProt Q8N122 1-1335)”, the binding result was “no binding” in experiment [1], “binds” in experiment [2], “binds” in experiment [3] and “binds” in experiment [4].

For “endogenous RAPTOR (from UniProt Q8N122 1-1335)”, the binding result in experiment [5] is on record as “binds”.
